# Experimental data published in the BET-seq Pho4 binding data (Le et al. 2018).
# The list shows a part of the results. Values were computed here from the reads of four pooled replicates and scatter widely.
# Target: T1, Pho4 (S. cerevisiae) (UniProt P07270)
# T1 sequence: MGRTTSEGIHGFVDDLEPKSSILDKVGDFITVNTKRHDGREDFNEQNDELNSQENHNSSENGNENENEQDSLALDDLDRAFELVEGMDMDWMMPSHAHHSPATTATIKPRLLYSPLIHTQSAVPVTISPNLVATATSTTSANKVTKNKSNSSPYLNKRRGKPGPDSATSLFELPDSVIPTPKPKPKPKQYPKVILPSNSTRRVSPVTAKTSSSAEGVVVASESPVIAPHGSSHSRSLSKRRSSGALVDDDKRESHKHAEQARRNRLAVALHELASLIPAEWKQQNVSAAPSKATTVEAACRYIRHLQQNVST
# Assay: relative binding free energy (BET-seq); higher = weaker binding
# Settings: reference: library average
row,Sequence,relative binding free energy [kcal/mol]
1,GTGGGCACGTGACGCT,0.09
2,TTTGACACGTGTAAAG,0.19
3,TGACGCACGTGATTGT,0.02
4,TATAACACGTGGGAAT,-0.07
5,AAGGCCACGTGTCGGG,-0.11
6,GTGAACACGTGCGGCG,0.02
7,TTGGGCACGTGGACTA,-0.07
8,TGTTACACGTGTGAAT,0.23
9,AAATGCACGTGTAAAG,0.09
10,GGGGCCACGTGAGGCT,-0.01
11,TGTTTCACGTGGCACT,0.12
12,GCTGGCACGTGTGCGT,-0.17
13,TAATGCACGTGATGAG,0.08
14,AAGTTCACGTGACGAG,0.39
15,AATGGCACGTGTAGTT,-0.1
16,AAGGGCACGTGTGGAC,-0.16
17,GGAGGCACGTGCAGTT,-0.14
18,GCATGCACGTGGTGGC,0.02
19,TCTAGCACGTGTTAGT,-0.05
20,CAGGGCACGTGGCAGG,-0.19
21,CTGTTCACGTGACGGT,0.32

row,Sequence,relative binding free energy [kcal/mol]
1,GGGGTCACGTGGAAAA,0.28
2,CTGGTCACGTGATTTA,0.24
3,TCATGCACGTGTAGGG,-0.09
4,GGTAGCACGTGGGCTA,-0.22
5,TGCGTCACGTGAACGG,0.3
6,ATAATCACGTGGGAGG,0.12
7,GTTATCACGTGAAAGG,0.31
8,TCTGTCACGTGTGCTT,0.1
9,TGCCGCACGTGTTGTT,-0.17
10,CGTTGCACGTGCGGAT,0.06
11,CATGGCACGTGTGTCG,-0.08
12,GTATCCACGTGGGGGG,-0.01
13,CGTGGCACGTGTGAGA,-0.08
14,AATGTCACGTGGCAGG,-0.11
15,ATATTCACGTGAGGTC,0.4
16,TTTGTCACGTGACGAT,0.18
17,TTGGTCACGTGTCTAG,0.23
18,GGATCCACGTGGTTGT,-0.08
19,GTGGGCACGTGGGAGG,-0.09
20,TTGTCCACGTGGATAG,0.01
21,ATCGGCACGTGCGGTG,0.05

row,Sequence,relative binding free energy [kcal/mol]
1,TTAAGCACGTGCATGG,-0.23
2,GGGGTCACGTGTCAAA,0.19
3,TTATTCACGTGTAGGT,0.42
4,AGCTACACGTGTGAGT,0.26
5,AGTAGCACGTGGGTAG,-0.27
6,AGATTCACGTGACGTG,0.31
7,GTCATCACGTGGGTTT,0.09
8,TGTGTCACGTGCAGCT,-0.01
9,GAGGTCACGTGGATTC,0.35
10,TGTTGCACGTGAGATA,0.19
11,GTATTCACGTGCATTA,0.17
12,TTTAACACGTGTATTA,-0.03
13,GGGTGCACGTGTCGTG,0.02
14,GCAGTCACGTGAGGGA,0.29
15,TAACTCACGTGGGGAG,0.24
16,GGGGGCACGTGATCGA,-0.12
17,CTTTGCACGTGTATTA,0.01
18,TCTTACACGTGTGTGT,0.2
19,TTTGCCACGTGTGCAT,-0.03
20,GTTGACACGTGTATGT,0.08
21,ATTAACACGTGGAGTA,0.05
